Among all 360,000 compounds or so, about 2,600 (0.72%) were called active. The shares of active, inactive and inconclusive entries below differ from those in the screen. The call rests on the fitted dose curve; in most records, active means well fitted inhibition curve with a large enough effect; inconclusive means small, poorly fitted or top-dose-only effect; inactive means no such curve, though single readings can be large or run the other way. Potencies beside an inconclusive call are fits to weak or partial responses and may not hold up.
test: Primary qHTS for Inhibitors of ATXN expression; conditions: HEK-293 ATXN2-luciferase reporter, luminescence, 24 h; activity change, negative = inhibition: at 57 µM (top of the series); further: nearly all actives have a fitted effect of over 55% in size
In short: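 qHTS (up to 57 uM final) was run with 24 h compound exposure of reporter cells at 37 °C. Each well was multiplexed: SteadyGlo luminescence measured ATXN2-luciferase expression after a fluorogenic Gly-Phe-AFC viability readout (25 uM final).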
On the % scale 0 is the no-effect control and ±100 the full control effect; potency means the concentration at half of the fitted maximal effect; tags describe the fitted curve by direction and shape.

Potency, inconclusive:
Cc1ccccc1N1CCN(C2CCCN(C(=O)c3cn4cccc(C)c4n3)C2)CC1 (stereo not drawn) 39.8 µM [inhibitor, single point], COc1ccc(OC(C)C(=O)NCc2nc(-c3cccc(C)c3)no2)cc1 (stereo not drawn) 20 µM [inhibitor, partial curve, poor fit], CCCCc1c(O)nc(SCC(=O)N2CCCCCC2)[nH]c1=O 0.794 µM [inhibitor, partial curve, poor fit], Cc1ccc([C@H]2C[C@H](O)[C@@H](n3cc(COC(=O)c4ccccc4)nn3)CN2CC2CCCCC2)cc1 28.2 µM [inhibitor, single point], COc1ccc(N(CC(=O)NCc2ccc3c(c2)OCO3)C(=O)CCC(=O)Nc2ccccn2)cc1 0.0075 µM [inhibitor, full curve, poor fit], Cc1ccc(S(=O)(=O)c2c(N)n(CC3CCOC3)c3nc4ccccc4nc23)cc1 (stereo not drawn) 31.6 µM [inhibitor, single point], CCc1ccc(Nc2n[n+](-c3ccccc3)c(-c3ccc(OC)c(Br)c3)s2)cc1 12.6 µM [inhibitor, partial curve, poor fit], Cc1ccc(-c2csc3ncnc(Nc4ccc(N5CCOCC5)cc4)c23)cc1 22.4 µM [inhibitor, partial curve, poor fit], COc1ccc(-c2noc(CSc3nnc(Cc4ccccc4)n3-c3cccc(C)c3)n2)cc1 39.8 µM [inhibitor, single point], CC(=O)Nc1ccc(NC(=O)CSc2nnc(N)n2-c2ccccc2)cc1 35.5 µM [inhibitor, single point], C/C(Cn1nnc([N+](=O)[O-])n1)=N\NC(=O)c1ccc(Cl)c(Cl)c1 22.4 µM [inhibitor, partial curve]

Activity change, negative = inhibition, inactive:
Cc1ccc(NS(=O)(=O)c2cccc(C(=O)NCC(c3cccs3)N(C)C)c2)cc1 (stereo not drawn) -20.3%, COc1ccc(/C=C/C(=O)Nc2ccc(-c3nnc4n3CCCCC4)cc2)c(OC)c1 -8.85%, COc1ccc(Nc2nc(NCc3ccco3)nc(N3CCOCC3)n2)cc1 -17.9%, CCOc1ccc2c(c1)[N+](C)(C)C(C)(C)C=C2C -4.58%, CCOc1cc(CNCCSc2nnnn2C)cc(Br)c1OCc1ccccc1F -23.3%, O=C(O)c1ccccc1SC1CC(=O)N(c2cccc3ccccc23)C1=O (stereo not drawn) -1.77%, CCOC(=O)C1=C(C)N=C2SC(C)C(=O)N2C1c1ccc(C(=O)OC)cc1 (stereo not drawn) -8.82%
